Data published in article PMC10579536 (Research and Practice in Thrombosis and Haemostasis, 2023).

Molecular target: T1, Recombinant human angiopoietin-2 (human, UniProt O15123 19-496)
T1 sequence (looked up): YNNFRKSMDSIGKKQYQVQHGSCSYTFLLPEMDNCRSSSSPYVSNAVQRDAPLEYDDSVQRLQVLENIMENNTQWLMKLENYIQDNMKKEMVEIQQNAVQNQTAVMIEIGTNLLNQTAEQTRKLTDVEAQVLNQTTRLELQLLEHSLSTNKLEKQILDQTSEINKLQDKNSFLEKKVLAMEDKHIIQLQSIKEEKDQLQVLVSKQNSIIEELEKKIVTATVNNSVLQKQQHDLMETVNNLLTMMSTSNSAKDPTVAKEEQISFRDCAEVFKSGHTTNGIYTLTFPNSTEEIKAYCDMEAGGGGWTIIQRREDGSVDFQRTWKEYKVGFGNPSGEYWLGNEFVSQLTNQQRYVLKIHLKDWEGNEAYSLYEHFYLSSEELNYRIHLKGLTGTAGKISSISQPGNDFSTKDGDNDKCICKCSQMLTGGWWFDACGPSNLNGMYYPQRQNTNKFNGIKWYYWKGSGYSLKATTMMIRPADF
Experiment: ELISA

EC50: 6.1 ± 1 nM
B1: Recombinant VWF A1 domain fused to Fc (Fc fusion)
chain: not shown
